Experimental data as given in PubChem BioAssay AID743279 (National Center for Advancing Translational Sciences (NCATS), 2014).
Among all 360,000 compounds or so, about 17,000 (4.7%) were called active. The inconclusive results got no clear call from the source; some entries with a clear call stand among them for comparison. Cut-off read from the data, not from the text of the source: active = activity change below about -50%; inconclusive = mostly about -30% to -49%; inactive = weaker than that.

test: qHTS for Inhibitors of Inflammasome Signaling: IL-1-beta AlphaLISA Primary Screen; conditions: THP-1 LPS/ATP IL-1B secretion, 16 h; at 57.5 µM, stronger effect = lower value
Procedure, shortened: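 Secreted IL-1B measured by AlphaLISA bead assay after 16 h compound exposure of THP-1 cells; compounds (final up to 57.5 uM) added 1 h before LPS (250 ng/mL) and ATP (1.25 mM) stimulation; lower signal means less secretion.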
% is set by controls: 0 for no effect and ±100 for the full control effect.

Activity change, inactive:
O=C(NCCc1ccc(Cl)cc1)C1CCN(S(=O)(=O)N2CCCCC2)CC1 11.9%, Cc1ccc(S(=O)(=O)N(C)c2ccc(N)cc2)cc1 6.11%, CN(C(=O)CCS(=O)(=O)c1cc2c(cc1Cl)NC(=O)CO2)C1CCCCC1 2.75%, CCOC(=O)c1[nH]c2ccc(C)cc2c1N=CN(CC)CC -19.1%, Cc1cc2c(cc1S(=O)(=O)CCC(=O)NCCc1ccccc1)OCC(=O)N2 5.18%, O=C(NNc1ccccc1)C(=O)NNS(=O)(=O)c1ccc(CCCl)cc1 37.6%, CCCNC1(C(N)=O)CCN(Cc2ccccc2)CC1 -9.9%

Activity change, active:
COc1ccc(NC(=O)C(Cl)=C(Cl)Cl)cn1 -96.9%, Cc1cccc(N2CCc3c2nc2ccc(Br)cc2c3N)c1 -94.1%, C=C1C(=O)[C@]23C[C@H]1CCC2[C@@]1(C)C(C[C@@H]3O)[C@](C)(C(=O)OC)CC[C@@H]1O (some centres undefined) -111%, CCC(C(=O)NC1CCCCC1)n1nc(C)c2c(C)n(-c3ccccc3)nc2c1=O (centres undefined) -68.6%, CCCCOc1ccc(CSC(=N)N)cc1[N+](=O)[O-] -102%, COc1ccc2[nH]c3c(NCCC4=CCCCC4)ncnc3c2c1 -105%, CCc1nc2ccc(C(=O)Nc3cccc(NS(C)(=O)=O)c3)cn2c1N(CC)Cc1cccc(Br)c1 -70.4%

Activity change, inconclusive:
O=[N+]([O-])c1cccc(CSC2=NCCN2S(=O)(=O)c2ccccc2)c1 -43.9%, c1ccc2c(N3CCOCC3)nc(-c3ccncc3)nc2c1 -32.9%, CSc1nc(-c2ccccc2)nc(NC(=O)c2ccccc2)c1C(C)=O -32.8%, CCOC(=O)C1=CCN(S(=O)(=O)c2cccc(Cl)c2)C1c1cccc(F)c1 (centres undefined) -30.3%, Cc1cc(OCC(O)CN2CCc3ccccc3C2)cc(C(C)C)c1 (centres undefined) -33%, O=C(NC(=S)Nc1ccc(CN2CCOCC2)cc1)c1ccc(-c2cccc(Cl)c2)o1 -40.1%, CCSc1nnc(NC(=O)NC(CC)(C(F)(F)F)C(F)(F)F)s1 -35.5%, CCCc1ccc(-c2cc(NC(=O)CSc3nnc(N)s3)n(-c3ccccc3)n2)cc1 -35.6%, Cn1c(=O)cc(OCCCC(=O)N2CCN(Cc3ccc4c(c3)OCO4)CC2)c2ccccc21 -36.8%, O=C(Nc1ccc(-n2cccn2)cc1)C1CCN(Cc2ccccn2)CC1 -34.2%
